From the supplement of paper PMC10126150
Values marked as one replicate rest on one cluster of the flow cell; about a third of the high ones do not repeat.

Each sequence was assayed on ATP (assay: switch fluorescence ratio, 500 uM ATP over buffer (Cy3 cluster intensity, sum of 5 cycles each) (fold (ratio)); higher = stronger signal-on switching upon ATP binding; sequences stand for … in TCGTCGGCAGCGTCAGATGTGTATAAGAGACAGTTTTTTTTTTTTTTTTTTTTTTTTT…TC). Conditions: aptamer strand: ATP DNA aptamer (quencher-CACCTGGGGGAGTATTGCGGAGGAAGG + anchor), 100 nM annealed; ATP concentration: 500 uM; one replicate.
In short: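 Five buffer/ATP imaging cycles were run on Cy3-labelled switching-strand clusters on a modified Illumina MiSeq flow-cell, with NaOH stripping and re-annealing between cycles. In each cycle, clusters annealed to 100 nM quencher-labelled ATP aptamer were imaged in selection buffer, then after 15 min with 500 uM ATP at 22 °C. Per cluster, the fluorescence ratio is summed target-cycle over summed buffer-cycle Cy3 intensity, averaged per switch-domain sequence. Only clusters within 100-1000 RFU were kept.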
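Note: ATP exposure 15 min at 22 °C before imaging.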

Row | Sequence | switch fluorescence ratio
1 | CGATAGGGGA | 1
2 | GAGTTACACC | 1.08
3 | CCGATATTGA | 1.09
4 | CATCCTATGT | 0.997
5 | GATGCAGTG | 1.02
6 | CTTAAACGAT | 1.04
7 | TTCCCATGAG | 0.976
8 | TGTGTTTTAT | 0.985
9 | ACCCAATTAA | 1.03
10 | TTGAGCCCGT | 0.974
11 | TGCGGTGAAC | 1
12 | CGCTCTACCG | 1.04
13 | GGTGCGGGGC | 0.956
14 | GCAGTGAGTG | 0.967
15 | TATGCGTGTT | 0.971
16 | CGGCCCAA | 1.71
17 | CGTGCCGAGC | 1.02
18 | TCGCCAGGAT | 1.02
19 | TACGTCTCCT | 1.05
20 | AGGTCAATCC | 1.01
21 | GACTGGAGTG | 1
22 | ACTGGGAATG | 0.995
23 | GGTTTTGGAC | 1.03
24 | TATCCTTACG | 1.14
25 | CTTAGCGTGT | 1.01
26 | CGTGGAAAT | 1.01

Row | Sequence | switch fluorescence ratio
27 | TGAGCATAGA | 0.996
28 | ACACCTAGTC | 1.12
29 | CGAGTAAGAT | 1.13
30 | ATACACCGAG | 1.08
31 | CATTCGTCAA | 4.75
32 | CACACCCTGG | 1.27
33 | ATAAAAGCGG | 1.04
34 | TCATGTGCTG | 1.01
35 | TACTTAGCCT | 1.08
36 | GGGTGGGAC | 0.987
37 | GCGTGTGCG | 0.994
38 | GATCCTTAAC | 1.05
39 | TTTGCTGGGG | 1.07
40 | TTGTGAACGG | 0.972
41 | CTTACGGGTG | 1.03
42 | GAACAAGTAT | 0.985
43 | CGGCAGGTGG | 1.05
44 | GTTATTGCC | 0.987
45 | CCTAACGTAG | 1.01
46 | GGGACTAGTC | 1.07
47 | CATGTGGGAT | 1.02
48 | TAGGGGCGCC | 1.01
49 | GTCTGCGCAA | 2.94
50 | AATGTCATCG | 1.09
51 | TTTACGTCT | 1.04
52 | GCGCCCA | 0.997

Row | Sequence | switch fluorescence ratio
53 | AAGAGCTACA | 1.01
54 | ACTAGGGTTC | 1.04
55 | GGATCTTACG | 0.99
56 | TACGAGGTGC | 1.14
57 | TTAGATTTTC | 0.997
58 | CTGTAATTTC | 1.12
59 | TGGAGAACAG | 1.07
60 | CCCCGGGTTT | 1.64
61 | ATAGAGAGGA | 0.981
62 | TAGTCGACTA | 1.03
63 | CGCTCTTACG | 1.03
64 | CCAGGCGCT | 1.13
65 | ATAGAAGACT | 0.993
66 | ACTACGGTAG | 1.02
67 | CTGCTAACGA | 1.26
68 | TGTCAAAG | 1.01
69 | TAAAGGTCCT | 1.05
70 | TTCTGCATAG | 3.94
71 | GCTCCTTATC | 1.25
72 | GATGTTCGTC | 0.978
73 | TCCAAAGAT | 1.02
74 | ACAACCCGCT | 1.13
75 | AAATAGGGA | 0.979
76 | TAACTGGGAC | 1.03
77 | GTTCTATAGA | 1.04
78 | CTTTTTTAAC | 0.997

Row | Sequence | switch fluorescence ratio
79 | TCCTAGTTTA | 0.998
80 | GGATTCCTGG | 0.959
81 | GGAAGTTTGG | 0.984
82 | AGTAGGTTG | 0.996
83 | AGTCCACTCC | 1.1
84 | CTTGGTCACA | 1.03
85 | AAGAGAACCT | 1.98
86 | TGGCGAAGCT | 0.997
87 | ACCGGTTTCA | 0.954
88 | TTATTGA | 0.968
89 | TAGACAAAGA | 0.98
90 | CGGTGGTCTG | 1.03
91 | GACAGGTTCG | 0.991
92 | GGCGTTTCGT | 0.958
93 | AAGGCGCCTG | 1.02
94 | GTAATCGAA | 0.97
95 | CCCCGAGATG | 2.59
96 | CGGAAAACGG | 0.98
97 | GGGTATTCTT | 0.977
98 | TATAGTCCAT | 0.999
99 | TTTTGGTCCC | 1.04
100 | ATAAATGTCT | 0.995
101 | AGACGAGGCG | 0.913
